In all, about 48,000 compounds went through this assay and about 120 (0.25%) were called active. Inconclusive results (about 4%) are left out. Calls come from the whole dose curve; as a rule, active = well fitted activation curve with a large enough effect; inconclusive = small, poorly fitted or top-dose-only effect, or another doubt; inactive = no such curve, though single readings can be large or run the other way. Some of the results follow.
experiment: Primary qHTS for Identification of Small Molecule Activators of Huntingtin-Antisense Promoter Activity; conditions: HEK293 HTT-AS promoter firefly luciferase reporter, 24 h; series mostly up to 57.5 µM; activity change, positive = activation: at the top concentration; note: nearly all actives have a fitted effect of over 55% in size
How it was run: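 HEK293 cells carrying firefly luciferase reporters were seeded at 2,500 per well in Opti-MEM and cultured for 24 h. They were then treated with compounds at up to 57.5 uM final for 24 h at 37 degrees C before Dual-Glo luminescence readout.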

Activity change, positive = activation, inactive:
O=C(NCc1c(-n2cccc2)sc2c1CCCC2)Nc1cccc(C(F)(F)F)c1 -23.8%
CCc1ccc(NC(=O)C2CCCN(S(=O)(=O)c3ccc4c(c3)oc(=O)n4C)C2)cc1 (stereo not given) -14.6%
COCCCNC(=O)CCCn1c(SCC(=O)c2ccc(Br)cc2)nc2c(sc3ccccc32)c1=O -8.27%
Cc1ccc(C(=O)NCC(c2ccc(Cl)cc2)N2CCCCC2)cc1 (stereo not given) -12.3%
CCOc1ccc(C(=O)N2CC(=O)Nc3ccc(C)cc3C2c2ccc(F)cc2)cc1OCC (stereo not given) -31.7%
Cc1ccc(Cl)c2sc(NC(=O)c3ccc(S(=O)(=O)N4CCCC4)cc3)nc12 -33.6%
COc1cccc(CNC(=O)c2cccc(N3CCCS3(=O)=O)c2)c1 -15.6%
CSc1cccc(-n2nnc(-c3nsc(NC(=O)c4cccs4)n3)c2C)c1 18.7%
CCOC(=O)c1ccccc1NC(=O)CSc1nc(=O)[nH]c2c1CCCC2 -8.37%
Cc1ccc(NC(=O)CN2C(=O)C(c3ccccc3)=NC23CCCCC3)cc1C -31.4%
CCc1ccc2occ(CC(=O)N(Cc3ccccc3)C3CCS(=O)(=O)C3)c2c1 (stereo not given) -18.2%
COc1ccc(-n2c(C)nc3c(cnn3-c3ccc(C)c(C)c3)c2=O)cc1Cl -8.6%
CCS(=O)(=O)N1CCCc2cc(C(=O)Nc3cc([N+](=O)[O-])ccc3C)ccc21 -53.5%
CCc1ccc(S(=O)(=O)c2nnn3c2nc(N(C)Cc2ccccc2)c2cc(Cl)ccc23)cc1 16.3%
COc1cccc(CNC(=O)Cn2c(=O)ccc3cc(S(=O)(=O)N4CCCC4)ccc32)c1 -11.2%
CCN(CC)CCCNC(=O)c1cn(CC)c2ccc(S(=O)(=O)N3CCC(C)CC3)cc2c1=O 3.38%
Cc1cc(=O)n(CC(=O)N2CCCCC2)c2c1c(C)nn2C 15.3%
COc1ccc(Nc2nc3c(S(=O)(=O)c4ccccc4)nnn3c3ccc(Cl)cc23)cc1 -37.7%
COc1cc(/C=C(/C#N)c2nc(-c3cc4ccccc4oc3=O)cs2)ccc1O 4.12%
Cc1cccc(NC(=O)CSc2nc3c([nH]c4ccccc43)c(=O)n2-c2cc(C)cc(C)c2)c1 -10.1%
Cc1c(Cl)cccc1NC(=O)Nc1c[nH]c(=O)[nH]c1=O -8.17%
COc1cc(OC)cc(C(=O)Nc2nc(-c3nnn(-c4ccc(C)cc4)c3C)ns2)c1 -55.9%
CCOC(=O)C1=C(CN2CCC(C)CC2)NC(=O)NC1c1ccc(OC(C)C)cc1 (stereo not given) -29.4%
Nc1ccc(S(=O)(=O)NCc2ccccc2)cc1 -12%
Cc1ccc(Cn2c(CO)cnc2SCc2ccc(F)cc2)cc1 -23.5%
O=C(Nc1ccc(Cl)cc1Cl)c1cc(S(=O)(=O)NCc2ccc3c(c2)OCO3)ccc1F -21.6%
Cc1nn(CCC(=O)Nc2ccc(Cl)cc2)c(C)c1S(=O)(=O)N1CCCCC1 -32.1%
COc1ccccc1Cn1cc(C(=O)c2ccccc2)c(=O)c2cc(OC)c(OC)cc21 -3.61%
CN(C)c1ccc(CNC(=O)C2CCN(c3nnc(-n4cccc4)s3)CC2)cc1 -44.7%
CCOc1ccc(C(=O)Nc2ccc(-c3cc4ccccc4oc3=O)cc2)cc1Br -59.7%
CN(C1CCCCC1)S(=O)(=O)c1ccc2c(c1)c(=O)c(C(=O)N1CCN(c3ccccc3)CC1)cn2C 10.1% [at 11.5 µM, percent change from vehicle, -100% = no light]
O=C(O)c1ccc(NC(=O)c2ccc(Cl)c(S(=O)(=O)N3CCCCCC3)c2)cc1 12%
O=S(=O)(NCCS(=O)(=O)N1CCN(c2ccccc2)CC1)c1ccccc1 -7.76%
COC(=O)c1ccc(NC(=O)C(C)Sc2nc(=O)cc(N)n2CCc2ccccc2)cc1 (stereo not given) -22.3%
Cc1nc2c3ccccc3nc(NNC(=O)CCC(=O)O)n2n1 0.716%
Cc1ccc(NC(=O)CN2C(=O)CCSc3ccccc32)c(C)c1 -16.8%
COc1ccc(CCNC(=O)c2ccc3c(c2)nc(C)n3-c2ccc(Br)cc2)cc1OC -24.3%
C=Cc1ccc(CN2C(=O)N(c3ccc(C)c(C)c3)S(=O)(=O)c3ccccc32)cc1 -25.6%
COc1ccccc1C(=O)Nc1nnc(SCc2cc(=O)c3ccccc3[nH]2)s1 -20.4%
CCOc1ccc(NC(=O)c2cc3cc4ccc(C)cc4nc3o2)cc1 -7.47%
Cc1ccc(-n2c(=O)c3ccc(C(=O)NCc4ccco4)cc3n(Cc3ccccc3Cl)c2=O)cc1 11.5%
Brc1cccc(-c2nnn3c2nc(NC2CCCCC2)c2ccccc23)c1 2.87%
Cc1nn(-c2ccc(N3CCOCC3)nn2)c(C)c1CCC(=O)NCc1ccc(Cl)cc1 -23%
CCS(=O)(=O)c1ncc(Cl)c(C(=O)Nc2ccc(S(=O)(=O)N(C)c3ccccc3)cc2)n1 -94.6%
Cc1cccc(C)c1Nc1sc(C(=O)c2ccccc2)c(N)c1S(=O)(=O)c1ccccc1 -40.5%
COc1ccc2nc3sc(C(=O)NCCc4ccc(Cl)cc4)cc3cc2c1 -9.29%
COc1cc(OC)c(NC(=O)C2=C(C)C(=O)OC23CCN(C(C)=O)CC3)cc1Cl -5.97%
CCc1cccc(NC(=O)C2CCN(S(=O)(=O)c3ccc(Br)s3)CC2)c1 -37.3%
Cc1ccc(-n2ncc3c(=O)n(Cc4cccc(Cl)c4)cnc32)cc1C -4.2%
O=C(NCc1ccccc1)c1cccn1-c1nnc(N2CCCCC2)s1 -12.5%
CC1CC(OC(=O)c2ccccc2O)CC(C)(C)C1 (stereo not given) -1.6%
COc1ccc(Cn2c(C(=O)O)c(CNCc3ccco3)c3ccc(C)cc32)cc1 -25.8%
Cc1ccc(C)c(NC(=O)Nc2cc3c(cc2N2CCCCC2)n(C)c(=O)n3C)c1 -43.3%
COCCNC(=O)CSc1c(C)cnc2c1c(=O)n(C)c(=O)n2C -3.91%
Cc1ccc(NC(=O)Cn2cnc3c(oc4ccccc43)c2=O)cc1Cl -10.8%
COc1ccc(NC(=O)CCCOc2cc(=O)n(C)c3ccccc23)c(OC)c1 14.2%
CCCn1c2ccccc2c2cnn(CC(=O)NCCc3ccc(S(N)(=O)=O)cc3)c(=O)c21 -20.3%
Cn1c(NCc2cccc(Cl)c2)nc2ccccc21 -8.13%
COc1cc(C(=O)NCCc2sc(-c3ccc(C)cc3)nc2C)cc(OC)c1OC -21.7%
CC1CCN(C(=O)Cn2cc(SCC(=O)NCc3ccc(F)cc3)c3ccccc32)CC1 -24.3%
CCCCc1ccc(C(=O)c2c(N)c(C(=O)Nc3cccc(OC)c3)c3ccccn23)cc1 8.15%
Cc1nnc(N2C(=O)c3oc4ccccc4c(=O)c3C2c2cccc(OCCC(C)C)c2)s1 (stereo not given) -9.86% [at 11.5 µM, percent change from vehicle, -100% = no light]
COCCCNC(=O)c1c(NC(=O)Cc2coc3cc(C)ccc23)sc2c1CCCC2 -24.3%
COc1ccc(C(=O)/C=C/c2cn(CC(O)CN3CCCCCC3)c3ccccc23)cc1OC (stereo not given) -26.4%
Cc1ccc(C(=O)c2oc3ccccc3c2NC(=O)COc2ccccc2C)cc1 2.89%
COc1ccc(NC(=O)CSc2nc3ccccc3nc2N2CCOCC2)c(OC)c1 -13.7%
Cc1ccc(-c2noc(-c3ccc(N4CCOCC4)c([N+](=O)[O-])c3)n2)cc1 -31.9%
Cc1ccccc1CN1C(=O)c2ccccc2S(=O)c2ccc(C(=O)N3CCOCC3)cc21 (stereo not given) -26.5%
Cn1c(=O)c2cc(C(=O)NCCCN3CCN(c4ccc(F)cc4)CC3)sc2c2ccccc21 -17.9%
COc1ccc(-c2nc3ccccc3o2)cc1NC(=O)COc1cc(C)cc(C)c1 21.5%
Cc1oc2c(c1C(=O)Nc1ccc(OC(F)(F)F)cc1)C1=NCCN1C=N2 -10%
COc1ccc(NS(=O)(=O)c2cnc(N)nc2)cc1Cl -19.7%
COc1ccc(NC(=O)CCS(=O)(=O)c2cc3c4c(c2)CCN4C(=O)CC3)c(OC)c1 -3.94%
COc1ccc(C(=O)c2c(N)c(C(=O)Nc3ccccc3Cl)c3ccccn23)cc1 -8%
O=C(COc1ccc2oc3c(c2c1)CCCC3)Nc1cccc(Br)c1 -9.01%
Cc1cc(=O)[nH]c2nnc(SCC(N)=O)n12 5%
CCOC(=O)CSc1nc2sc3c(c2c(=O)n1Cc1ccccc1)CC(C(C)C)OC3 (stereo not given) -3.85%
CCC(C)NC(=O)CCCn1c(=O)c2cccn2c2ccccc21 (stereo not given) 12.4%
CCC(C(=O)NC1CCCCC1)n1c(SCc2ccccc2F)nc2ccncc21 (stereo not given) -19.5%
COCCNC(=O)CN1C(=O)COc2ccc(S(=O)(=O)N3CCCCCC3)cc21 -4.59%
CCc1ccc(NC(=O)CSc2ccc(-c3sc(-c4ccccc4)nc3C)nn2)cc1 -1.27%
Cc1ccccc1C(=O)Nc1cccc(NC(=O)c2ccc(C(C)(C)C)cc2)c1 10.9%
CCN(Cc1ccccc1)c1nc2c(S(=O)(=O)c3ccccc3)nnn2c2ccc(Cl)cc12 -22.7%
Cc1nn(C(C)C(=O)NCCc2ccccc2)c(=O)c2c1sc1ccccc12 (stereo not given) -30.5%
Cc1ccccc1CNC(=O)CN1C(=O)CCCc2ccccc21 -5.48%
N[C@H](Cc1c[nH]c2ccccc12)C(=O)O 0.171%
COc1ccc(CCNC(=O)CCCn2c(=O)c3ccccc3n(CC(=O)Nc3ccccc3C)c2=O)cc1OC -11.8%
Cc1ccc(C2CC(=O)N(Cc3ccc(F)cc3)c3c2c(C)nn3-c2nc(C)cc(C)n2)cc1 (stereo not given) -16.7%
COc1ccc(Cn2c(SCC(=O)N3CCN(c4ccc(F)cc4)CC3)nc3ccccc32)cc1 -28.5%
O=C(CN1CCN(Cc2ccc(F)cc2)C1=O)NCc1ccc(F)cc1 -5.34%
O=C(COc1ccccc1)N(Cc1cccnc1)c1nc2c(F)cc(F)cc2s1 -4.09%
Cc1sc(C2C(C#N)=C(N)N(c3ccc(Cl)cc3)C3=C2C(=O)CCC3)cc1CN1CCOCC1 (stereo not given) -11.4%
CC1CCN(S(=O)(=O)c2ccc3c(c2)N(CC(=O)NCCCOC(C)C)C(=O)CO3)CC1 -16.7%
COCCNC(=O)Cn1c(-c2cccs2)cc2cc(Cl)ccc21 -36.2%
CCc1ccccc1NC(=O)CN(c1ccccc1OC)S(=O)(=O)c1ccc(C)cc1 -34.6%
